Source: PubChem BioAssay AID485294 (National Center for Advancing Translational Sciences (NCATS), 2010)
About 150 (0.041%) of roughly 370,000 compounds were called active. This list was built around the results that the source calls inconclusive (neither active nor inactive); the mix of calls is not that of the screen. Calls come from the whole dose curve; as a rule, active = well fitted inhibition curve with a large enough effect; inconclusive = small, poorly fitted or top-dose-only effect; inactive = flat fitted curve, though single readings scatter. No potency is given beside an inconclusive call; the fits are too rough.

molecular target: Beta-lactamase (Escherichia coli (strain K12)) (UniProt P00811); assay: qHTS Inhibitors of AmpC Beta-Lactamase (assay with detergent); conditions: AmpC hydrolysis of nitrocefin, absorbance 480 nm, 0.01% Triton; activity change, negative = inhibition: at 114 µM (top of the series); note: nearly all actives have a fitted effect of over 25% in size;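 for activity change, negative = inhibition: 0% = no-compound wells and -100% = no-enzyme wells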
Chain of UniProt P00811 (P00811 whole entry, looked up): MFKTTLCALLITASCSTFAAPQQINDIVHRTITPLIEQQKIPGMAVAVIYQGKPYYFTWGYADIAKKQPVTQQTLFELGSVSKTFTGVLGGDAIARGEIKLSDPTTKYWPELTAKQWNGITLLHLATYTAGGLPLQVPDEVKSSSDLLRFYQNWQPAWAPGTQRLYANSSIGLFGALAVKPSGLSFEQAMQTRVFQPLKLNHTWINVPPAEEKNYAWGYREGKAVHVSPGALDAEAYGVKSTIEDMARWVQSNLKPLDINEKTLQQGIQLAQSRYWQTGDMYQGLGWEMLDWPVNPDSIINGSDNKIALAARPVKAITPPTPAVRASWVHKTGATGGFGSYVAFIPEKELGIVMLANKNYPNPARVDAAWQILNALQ
How it was run: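 20 mM phosphate pH 7.0 + 0.01% (detergent screen) or 0.0001% Triton X-100; 5.3 nM AmpC reagent; cpd preinc 15 min RT; nitrocefin (800 uM stock) to start; A480 q20 s × 4 min; Activity was normalised to no-enzyme and no-compound control wells.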
Potency is the fitted concentration of half-maximal effect; tags give direction and shape of the fitted curve.

SMILES | Potency | activity change, negative = inhibition
CC(=O)c1ccc(N2CCN(CC(O)COC(c3ccccc3)c3ccccc3C)CC2)cc1 (configuration not stated) | inconclusive [inhibitor, partial curve] | –
O=C1C2C3C=CC(CC3)C2C(=O)N1/N=C/c1ccc(O)c(O)c1 (configuration not stated) | inconclusive [inhibitor, full curve, poor fit] | –
Cc1ccc(NC(=O)CCC(=O)NNC(=O)/C=C/C(=O)O)c(C)c1 | inconclusive [inhibitor, full curve] | –
COc1ccc(Nc2cccccc2=O)cc1 | – | inactive: 2.25%
CCCc1nc2ccccc2n2c(-c3ccccc3)c3c(=O)n(C)c(=O)n(C)c3c12 | – | inactive: 9.02%
O=C(c1ccncc1)c1ccc(Br)cc1 | inconclusive [inhibitor, partial curve, poor fit] | –
Cc1cc2nc(/C(C#N)=C\c3ccc(-c4ccccc4C(=O)O)o3)[nH]c2cc1C | inconclusive [inhibitor, full curve, poor fit] | –
CC(C)N1C(=O)CC2(CC[N+](C)(CCOC(=O)C(c3ccccc3)c3ccccc3)CC2)C1=O (configuration not stated) | – | inactive: -3.5%
Cn1c(=O)c2c(nc(SCCCC#N)n2Cc2ccccc2F)n(C)c1=O | inconclusive [inhibitor, full curve, poor fit] | –
O=c1ccnc(SCCc2ccccc2)[nH]1 | – | inactive: -7.93%
CC(=O)Cc1nsc(NC(=O)c2c(-c3ccccc3Cl)noc2C)n1 | inconclusive [inhibitor, full curve] | –
CCCN(CCC)c1ncnc2nc[nH]c12 | inconclusive [inhibitor, full curve] | –
O=C(Nc1ccc(Cl)cc1C(=O)c1ccccc1)c1ccccc1 | inconclusive [inhibitor, partial curve, poor fit] | –
O=C(Nc1ccccc1)c1ccc(S(=O)(=O)N2CCOCC2)cc1 | inconclusive [inhibitor, single point] | –
C/C(=N\NC(=O)CNc1cccc(C(F)(F)F)c1)c1cccs1 | inconclusive [inhibitor, full curve] | –
CCOc1ccc(OCCC(=O)OCC(=O)NC(C)c2ccccc2)cc1 (configuration not stated) | inconclusive [inhibitor, full curve, poor fit] | –
COC(=O)c1ccc(COc2ccc(C)cc2[N+](=O)[O-])o1 | – | inactive: -10.5%
Cc1cccc(C(=O)N2CCc3cc(CNS(=O)(=O)c4ccc(Cl)s4)ccc32)c1 | – | inactive: 14%
COc1ccc(C2C(=O)N(CCc3ccccc3)CC(=O)N2C2CCCCC2)cc1 (configuration not stated) | – | inactive: -2.43%
CC(=O)Nc1ccc(-c2cn3ccsc3n2)cc1 | – | inactive: -8.9%
CC(=O)c1cccc(NC(=O)Nc2ccc3c(c2)N(C)C(=O)CS3)c1 | inconclusive [inhibitor, full curve] | –
CCCC(=O)Nc1nnc(Sc2ccc(N(C)C)cc2)s1 | inconclusive [inhibitor, partial curve] | –
Cc1c(C(=O)NCCCN2CCOCC2)sc2nc(-c3ccccc3)cn12 | inconclusive [inhibitor, full curve, poor fit] | –

SMILES | Potency | activity change, negative = inhibition
CCC(=O)N1N=C(c2ccc(C)o2)CC1c1ccc(Br)cc1 (configuration not stated) | inconclusive [inhibitor, partial curve, poor fit] | –
CCOC(=O)CCSCC(=O)Nc1nnc(C)s1 | inconclusive [inhibitor, full curve, poor fit] | –
CN(C)c1cccc(C(=O)OCC(=O)NCc2ccco2)c1 | inconclusive [inhibitor, single point] | –
C=CCSc1[nH]c(=O)cc(C)c1C(N)=O | inconclusive [inhibitor, partial curve] | –
C=CCn1c(SCc2cc(=O)n3ccsc3n2)nc2scc(C3CC3)c2c1=O | inconclusive [inhibitor, partial curve] | –
CCC(=O)N=c1n(C)c2ccccc2n1CCOc1ccccc1 | inconclusive [inhibitor, full curve, poor fit] | –
COc1ccc(S(=O)(=O)N2CCC3(CC2)OCCN3S(=O)(=O)c2ccc(OC)cc2)cc1 | inconclusive [inhibitor, partial curve] | –
CCOc1ccc(N(CC(=O)Nc2cccnc2)S(=O)(=O)c2ccc(C)cc2)cc1 | inconclusive [inhibitor, single point] | –
O=C(c1ccccc1)c1ccc2nc(-c3ccc(NC(=O)c4ccccc4F)cc3)[nH]c2c1 | inconclusive [inhibitor, partial curve, poor fit] | –
O=c1cc(N2CCN(Cc3ccccc3)CC2)[nH]c(=O)n1-c1cccc(C(F)(F)F)c1 | inconclusive [inhibitor, partial curve] | –
Cn1c(C(=O)Nc2ccc3c(c2)OCO3)cc2c(=O)n(C)c3ccccc3c21 | inconclusive [inhibitor, single point] | –
Cc1cc(C(=O)Nc2cccc(S(=O)(=O)N3CCCCC3)c2)c2ccccc2n1 | inconclusive [inhibitor, full curve, poor fit] | –
O=C(Nc1ncc2c(n1)-c1ccccc1OC2)c1ccc(F)cc1 | inconclusive [inhibitor, full curve, poor fit] | –
CC(OC(=O)c1ccc([N+](=O)[O-])s1)C(=O)Nc1ncc(Cl)cc1Cl (configuration not stated) | inconclusive [inhibitor, partial curve] | –
CC#CCc1cc2ccccc2c(=O)o1 | – | inactive: -1.16%
COC(=O)c1cccc(Nc2cc(C)nc(-c3ccccc3O)n2)c1 | – | inactive: -4.73%
O=C(COC(=O)c1ccc(O)cc1)Nc1ccccc1[N+](=O)[O-] | inconclusive [inhibitor, partial curve] | –
O=[N+]([O-])c1cnccc1Nc1ccccc1 | inconclusive [inhibitor, full curve, poor fit] | –
Cc1nnc(SCCC#N)n(CCC#N)c1=O | inconclusive [inhibitor, single point] | –
COc1cccc(NC(=O)Cc2ccccc2)c1 | inconclusive [inhibitor, full curve, poor fit] | –
O=C(O)c1cc(Cl)c(Cl)cc1C(=O)N(Cc1ccccc1)Cc1ccccc1 | inconclusive [inhibitor, full curve, poor fit] | –
COc1ccc(-c2cn[nH]c2N)cc1 | – | inactive: -0.0483%
COc1ccc(/C=N/NC(=O)c2cccc(NC(=O)c3ccccc3Cl)c2)c(OC)c1 | inconclusive [inhibitor, single point] | –

SMILES | Potency | activity change, negative = inhibition
O=C(CCC1N=C2c3ccccc3N=C(SCC(=O)NCC3CCCO3)N2C1=O)NCc1ccc(F)cc1 (configuration not stated) | inconclusive [inhibitor, full curve] | –
Cc1ccc(CN2CC(C(=O)N3CC(C)CC(C)C3)CC2=O)cc1 (configuration not stated) | inconclusive [inhibitor, full curve, poor fit] | –
Cc1ccc(N(O)C(=O)NCCCCNC(=O)N(O)c2ccc(C)cc2)cc1 | – | inactive: 2.63%
COc1ccc2nc(NC(=O)c3cccc(-c4cc5ccccc5oc4=O)c3)sc2c1 | inconclusive [inhibitor, full curve, poor fit] | –
CC(Sc1ccc(Cl)cc1)C(=O)NCC1CCCO1 (configuration not stated) | inconclusive [inhibitor, full curve, poor fit] | –
CCOC(=O)N1CCN(S(=O)(=O)c2cc(OCC(=O)NC3CCCCC3)c(C)cc2Cl)CC1 | inconclusive [inhibitor, partial curve] | –
CCNC(=O)c1nn(-c2ccccc2C)nc1CO | – | inactive: 17.4%
NC(=O)c1nnsc1Sc1c(C(N)=O)nnn1-c1cccc(N)c1 | inconclusive [inhibitor, partial curve, poor fit] | –
O=C(Nc1ccc(Cl)c(S(=O)(=O)N2CCOCC2)c1)c1ccc2c(c1)OCCO2 | inconclusive [inhibitor, single point] | –
O=C(O)CN1C(=O)NC2(CCc3ccccc32)C1=O (configuration not stated) | inconclusive [inhibitor, full curve, poor fit] | –
Cc1nnsc1-c1nc2ccccc2[nH]1 | inconclusive [inhibitor, full curve, poor fit] | –
CCc1ccc(C(=O)Cn2ncc(Cl)c(Cl)c2=O)cc1 | inconclusive [inhibitor, partial curve] | –
COc1ccc(OCC(=O)OCC(=O)c2ccc(OC)c(F)c2)cc1 | – | inactive: -12.1%
CN1C(=O)c2ccc(N3CCCC3)cc2C1=O | inconclusive [inhibitor, full curve, poor fit] | –
O=[N+]([O-])c1ccc(NCCN2CCOCC2)c([N+](=O)[O-])c1 | inconclusive [inhibitor, single point] | –
O=C(C1CCN(Cc2cccs2)CC1)N1CCN(Cc2ccc3c(c2)OCO3)CC1 | inconclusive [inhibitor, single point] | –
CCOC(=O)c1cc(-c2ccccc2)n(CC(=O)Nc2ccc(OC)c(OC)c2)c1C | – | inactive: -9.77%
CSc1nncn1/N=C/c1ccccc1F | inconclusive [inhibitor, full curve, poor fit] | –
N#C/C(=C\c1ccccc1)c1ccccn1 | – | inactive: 2.14%
CCOc1ccccc1OCCCOc1ccc(C)cc1Br | inconclusive [inhibitor, single point] | –
Cc1ccc(C)c2nc(N3CCCC3)c(C#N)cc12 | inconclusive [inhibitor, partial curve, poor fit] | –
